The other results are listed elsewhere or left out.
Columns and labels:
[1] = test system: HSkMC (human skeletal muscle cells); experiment: cytotoxicity call (relative viability < 0.9); conditions: 10 µM
[2] = test system: HepG2; experiment: cytotoxicity call (relative viability < 0.9); conditions: 10 µM
[3] = test system: S. aureus RN4220; experiment: growth inhibition call (relative growth <= 0.2); conditions: 50 µM

Row | Structure (SMILES) | cytotoxicity call [1] | cytotoxicity call [2] | growth inhibition call [3]
1 | O=C(C[C@@H]1CC[C@H]2[C@@H](COC[C@H](O)CN2S(=O)(=O)c2ccccc2)O1)N[C@H]1CCN(Cc2ccccc2)C1 | inactive | inactive | inactive
2 | O=C(C[C@H]1C=C[C@@H](NC(=O)CN2CCOCC2)[C@@H](CO)O1)NCCc1ccncc1 | inactive | inactive | inactive
3 | Cc1ccc(S(=O)(=O)Nc2ccc3c(c2)C(=O)N([C@@H](C)CO)C[C@@H](C)[C@@H](CN(C)C(=O)Nc2c(C)noc2C)OCCCC[C@H](C)O3)cc1 | inactive | inactive | inactive
4 | Cc1ccc2[nH]c(C)cc2c1 | inactive | inactive | inactive
5 | COC(=O)c1c2oc(c1C(=O)OC)C(=O)N[C@H](Cc1ccccc1)Cn1cc(nn1)CNC(=O)[C@@H](Cc1ccccc1)NC(=O)N[C@@H](COC(=O)NCCCCCC(=O)NO)CC2 | inactive | inactive | inactive
6 | CC[C@H]1COCCC(=O)N1 | inactive | inactive | inactive
7 | CC(C)NC(=O)Nc1ccc2c(c1)C(=O)N([C@@H](C)CO)C[C@@H](C)[C@H](CN(C)C(=O)Nc1ccc(C(F)(F)F)cc1)OCCCC[C@@H](C)O2 | inactive | active | inactive
8 | C=CC[C@@H](CC(=O)N(CCO)Cc1ccccc1)C(=O)NC[C@@H](OC(=O)[C@@H](CC=C)Cc1ccc(F)cc1)c1ccccc1 | inactive | inactive | inactive

— the antibiotic and cytotoxicity screens of Wong et al. (2023)
